Test results published in the supplement of paper PMC10600219.
Counter-ions that a name gives are not always drawn. Whole data set: some 2,800 compounds, median “cell viability relative to vehicle” near 1.1, cut for the lowest 2% near 0.19. Some of the results follow.

Tested on: NCI-H2228 parental
Assay: cell viability relative to vehicle (fraction of vehicle); NCI-H2228 is an ALK-positive lung cancer line and DTP means drug-tolerant persister; higher = less growth inhibition
Conditions: 100 nM; treatment time 6 days
Outline: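 The 3114-agent TargetMol anti-cancer compound library was tested at 100 nM for 6 days on parental NCI-H2228 cells and on persister cells derived with 1000 nM of a targeted drug for 13 days. ATP readout by the CellTiter-Glo 3D Cell Viability Assay gave cell viability relative to DMSO vehicle-treated cells.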

SMILES | cell viability
OCCOCCN1CCN(C(c2ccccc2)c2ccc(Cl)cc2)CC1 (configuration not stated) [Hydroxyzine dihydrochloride] | 1.04
OCCOCCN1CCN(C(c2ccccc2)c2ccc(Cl)cc2)CC1 (configuration not stated) [Hydroxyzine Pamoate] | 1.12
C=CC1=C(C(=O)O)N2C(=O)[C@@H](NC(=O)/C(=N\OCC(=O)O)c3csc(N)n3)[C@H]2SC1 [Cefixime] | 1.18
NC(=S)N/N=C/c1ncccc1N [Triapine] | 1.23
Nc1cccc2c1CN(C1CCC(=O)NC1=O)C2=O (configuration not stated) [Lenalidomide] | 1.09
CC(=O)Nc1ccc(O)cc1 [Acetaminophen] | 1.15
CCCCCCCCOC(=O)c1cc(O)c(O)c(O)c1 [Octyl gallate] | 1.03
COc1ccc(-c2cc(=O)c3c(O)cc(O[C@@H]4O[C@H](CO[C@@H]5O[C@@H](C)[C@H](O)[C@@H](O)[C@H]5O)[C@@H](O)[C@H](O)[C@H]4O)cc3o2)cc1 [Linarin] | 1.02
CC(Nc1nc(N2CCCC2)nc2ccccc12)c1ccccc1 (configuration not stated) [Importazole] | 1.2
O=S(=O)(O)CCCS(=O)(=O)O [Eprodisate disodium] | 1.04
CCS(=O)(=O)Nc1ccc2c(c1)/C(=C(/Nc1ccc(CN3CCCCC3)cc1)c1ccccc1)C(=O)N2 [Hesperadin] | 0.254
O=C(Nc1ccc(-c2ccnc(Nc3ccc(N4CCOCC4)cc3)n2)cc1)C1CCCN1 (configuration not stated) | 1.06
COc1ccc2[nH]c([S+]([O-])Cc3ncc(C)c(OC)c3C)nc2c1 (configuration not stated) [Omeprazole] | 1.09
COc1ccc(-c2ccccc2)cc1NS(=O)(=O)c1cc(Cl)cc(Cl)c1O | 1.01
O=C1/C(=C2\Nc3ccccc3C2=O)Nc2ccccc21 [Indigo] | 1.07
C[C@H]1O[C@@H](O[C@H]2CC[C@@]3(C)[C@@H](CC[C@]4(C)[C@@H]3C=C[C@]35OC[C@@]6(CCC(C)(C)C[C@H]63)[C@H](O)C[C@]54C)[C@]2(C)CO)[C@H](O)[C@@H](O[C@@H]2O[C@H](CO)[C@@H](O)[C@H](O)[C@H]2O)[C@H]1O [Saikosaponin D] | 1.07
N=C(N)N/N=C/c1c(Cl)cccc1Cl [Guanabenz Acetate] | 0.974
Brc1c(NC2=NCCN2)ccc2nccnc12 [Brimonidine Tartrate] | 0.904
CN(C)CCOC(=O)COc1ccc(Cl)cc1 [Meclofenoxate hydrochloride] | 1.24
Nc1cc(-c2ccncc2)c[nH]c1=O [Amrinone] | 1.17
CS(=O)(=O)Nc1ccc([N+](=O)[O-])cc1OC1CCCCC1 | 1.11
Cc1ccc(NS(=O)(=O)c2cccc(C#N)c2)c2[nH]cc(C#N)c12 | 0.488
COC(=O)C(N)CS [L-Cysteine methyl ester hydrochloride(Acdrile)] | 1.28
C[C@@H]1CC[C@@]2(OC1)O[C@H]1C[C@H]3[C@@H]4CC=C5C[C@@H](O)C[C@@H](O)[C@]5(C)[C@H]4CC[C@]3(C)[C@H]1[C@@H]2C [Ruscogenin] | 1.02
COc1cc(OC)cc(C(=O)Nc2ccc(Cl)c(-c3nc4ccc(N(C)C)cc4[nH]3)c2)c1 [HhAntag] | 1.03
O=C(NCC(=O)N1CCCC1)Nc1ccc2cnccc2c1 | 1.13

SMILES | cell viability
CN(C)CC[C@@H](c1ccc(Cl)cc1)c1ccccn1 [Dexchlorpheniramine Maleate] | 0.85
CN(CCOc1ccc(CC2SC(=O)NC2=O)cc1)c1ccccn1 (configuration not stated) [Rosiglitazone] | 0.998
CN(CCOc1ccc(CC2SC(=O)NC2=O)cc1)c1ccccn1 (configuration not stated) [Rosiglitazone maleate] | 1.06
CCN(c1cc(-c2ccc(CN3CCOCC3)cc2)cc(C(=O)NCc2c(C)cc(C)[nH]c2=O)c1C)C1CCOCC1 | 1.29
NC(N)=O | 1.15
O=C(O)CC1CC(c2ccccc2)=NO1 (configuration not stated) | 1.03
COc1ccc(-c2cc(C(F)F)nn2-c2ccc(S(N)(=O)=O)cc2)cc1F [Deracoxib] | 1.16
S=C(N/N=C1/CCCc2cccnc21)N1CCN(c2ccccn2)CC1 | 1.09
C[C@@H]1O[C@@H](Oc2cc(O)c3c(=O)c(O[C@@H]4O[C@@H](C)[C@H](O)[C@@H](O)[C@H]4O)c(-c4ccc(O)cc4)oc3c2)[C@H](O)[C@H](O)[C@H]1O [Kaempferitrin] | 1.08
Cc1cc(Nc2nc(N[C@@H](C)c3ncc(F)cn3)ncc2Cl)[nH]n1 | 0.569
C=CC(=O)Nc1cc(Nc2nccc(-n3cc(CN(C)C)c(-c4ccccc4)n3)n2)c(OC)cc1N1CCOCC1 [Lazertinib] | 0.976
CCCCC(=O)N(Cc1ccc(-c2ccccc2-c2nnn[nH]2)cc1)[C@H](C(=O)O)C(C)C.CCOC(=O)[C@H](C)C[C@@H](Cc1ccc(-c2ccccc2)cc1)NC(=O)CCC(=O)O | 1.13
COC[C@H](NC(=O)c1cnc(C)s1)C(=O)N[C@@H](COC)C(=O)N[C@@H](Cc1ccccc1)C(=O)[C@@]1(C)CO1 [Oprozomib] | 0.176
COc1ccc(C(=O)NCc2ccc(OCCN(C)C)cc2)cc1OC [Itopride hydrochloride] | 0.995
N[C@@H](C(=O)N[C@@H]1C(=O)N2C(C(=O)O)=C(Cl)CS[C@H]12)c1ccccc1 [Cefaclor monohydrate] | 1.34
N#Cc1c(-c2ccccc2)cc(-c2cc(Br)ccc2O)[nH]c1=O | 1.02
C=C1C(=O)O[C@@H]2C[C@@]3(C)CCC[C@H](C)C3=C[C@H]12 [Helenine] | 1.06
O=C(Nc1ccccc1C(=O)Nc1ccc(CCO)cc1)c1ccc([N+](=O)[O-])cc1 | 1.12
Cc1cnc(CNC(=O)c2c(=O)c3ccc(N4CCCN(C)CC4)nc3n3c2sc2ccccc23)cn1 | 0.233
CN(C)Cc1cccc(N/C(=C2\C(=O)Nc3cc(C(N)=O)ccc32)c2ccccc2)c1 | 1.15
Cn1nccc1Nc1nccc(-c2ccn([C@H](CO)c3ccc(Cl)c(F)c3)c(=O)c2)n1 [Ravoxertinib] | 1
N=C(N)NCCC[C@H](N)C(=O)O [L-arginine monohydrochloride] | 1.03
CNCCC(Oc1ccc(C(F)(F)F)cc1)c1ccccc1 (configuration not stated) [Fluoxetine] | 1.16
C[C@@H](CN1CC(=O)NC(=O)C1)N1CC(=O)NC(=O)C1 [Dexrazoxane HCl] | 0.873
O=C(O)c1cc2ccccc2oc1=O [Coumarin-3-carboxylic acid] | 1.1
CCOc1ccccc1OCCN[C@H](C)Cc1ccc(OC)c(S(N)(=O)=O)c1 [Tamsulosin hydrochloride] | 0.984

SMILES | cell viability
O=S(=O)(O)CCS [Mesna] | 1.29
CN(C)C1CCN(C(=O)c2ccc(NC(=O)Nc3ccc(-c4nc(N5CCOCC5)nc(N5CCOCC5)n4)cc3)cc2)CC1 [Gedatolisib] | 0.26
O[C@H]1[C@H]2c3cc4c(cc3CN3CCC(=C[C@@H]1O)[C@H]23)OCO4 [Lycorine chloride] | 0.966
CCCCNC(=O)NS(=O)(=O)c1ccc(C)cc1 [Tolbutamide] | 1.06
C[C@@H]1O[C@@H](O[C@H]2[C@H](Oc3cc(O)c(C(=O)CCc4ccc(O)cc4)c(O)c3)O[C@H](CO)[C@@H](O)[C@@H]2O)[C@H](O)[C@H](O)[C@H]1O [Naringin dihydrochalcone] | 1.04
O=C(O)c1cc(-c2ccc(F)cc2F)ccc1O [Diflunisal] | 1.07
O=C(Nc1c(Cl)cncc1Cl)c1ccc(OC(F)F)c(OCC2CC2)c1 [Roflumilast] | 1.07
C=CC(=O)N1CC/C(=C\c2ccc(F)c([N+](=O)[O-])c2)C(=O)/C(=C/c2ccc(F)c([N+](=O)[O-])c2)C1 | 1.08
CCCS(=O)(=O)Nc1ccc(F)c(C(=O)c2c[nH]c3ncc(-c4ccc(Cl)cc4)cc23)c1F [Vemurafenib] | 1.2
Cc1cc(C)c(NC(=O)C2CC3CCC2C3)c(C)c1 (configuration not stated) | 1.12
CN(C)Cc1ccc(-c2nc3cccc4c3n2CCNC4=O)cc1 | 1.02
O=C(/C=C\n1cnc(-c2cc(C(F)(F)F)cc(C(F)(F)F)c2)n1)NNc1cnccn1 [Selinexor] | 0.515
CCCCCCc1ccc(O)cc1O [Hexylresorcinol] | 1.07
Cc1[nH]c(/C=C2\C(=O)Nc3ccc(S(=O)(=O)N(C)c4cccc(Cl)c4)cc32)c(C)c1C(=O)N1CCN(C)CC1 | 1.06
CC1(C)NC(=O)N(c2ccc([N+](=O)[O-])c(C(F)(F)F)c2)C1=O [Nilutamide] | 0.866
CCC1C/C(=C\c2cccnc2)C(=O)/C(=C/c2cccnc2)C1 (configuration not stated) | 1.06
COC(=O)[C@@H]1[C@H]2C[C@H]3c4[nH]c5ccccc5c4CCN3C[C@@H]2CC[C@@H]1O [Yohimbine hydrochloride] | 1.08
COc1ccc2cc([C@@H](C)C(=O)O)ccc2c1 [(R)-Naproxen] | 1.17
CC(C)NCC(O)COc1cccc2ccccc12 (configuration not stated) [Propranolol hydrochloride] | 1.09
O=C(Nc1ccc(OC(F)(F)Cl)cc1)c1cnc(N2CC[C@@H](O)C2)c(-c2cc[nH]n2)c1 [Asciminib] | 1.11
Cc1nc(NC(=O)N2CCC[C@H]2C(N)=O)sc1-c1ccnc(C(C)(C)C(F)(F)F)c1 [Alpelisib] | 0.822
CCCCc1nc(C)c(CC(=S)N(C)C)c(=O)n1Cc1ccc(-c2ccccc2-c2nnn[nH]2)cc1 [Fimasartan] | 1.02
COc1cc(OC)cc(-c2cc3cnc(N)nc3nc2NC(=O)NC(C)(C)C)c1 | 0.857
COc1ccc2cc1Oc1ccc(cc1)C[C@H]1c3cc(c(OC)cc3CCN1C)Oc1c(OC)c(OC)cc3c1[C@H](C2)N(C)CC3 [Tetrandrine] | 0.973
Nc1ncnc2c1c(-c1cnc3[nH]ccc3c1)nn2C1CCCC1 | 0.622
